This is one part of the list. Values were computed here from the reads of four pooled replicates and scatter widely.
The sequences below were run against T1, Pho4 (S. cerevisiae) (UniProt P07270) (assay: relative binding free energy (BET-seq); higher = weaker binding). Details: reference: library average.
T1 sequence: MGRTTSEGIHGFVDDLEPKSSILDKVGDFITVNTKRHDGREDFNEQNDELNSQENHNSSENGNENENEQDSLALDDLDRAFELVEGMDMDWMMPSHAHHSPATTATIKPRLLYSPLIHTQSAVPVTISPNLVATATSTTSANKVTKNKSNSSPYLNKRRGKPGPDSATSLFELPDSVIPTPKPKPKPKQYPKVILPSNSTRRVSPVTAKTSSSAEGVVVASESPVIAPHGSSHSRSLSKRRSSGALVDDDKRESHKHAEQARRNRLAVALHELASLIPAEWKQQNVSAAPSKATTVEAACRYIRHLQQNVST

| Sequence | relative binding free energy [kcal/mol] |
| --- | --- |
| TTTAGCACGTGGGTGC | -0.21 |
| ACATTCACGTGTGTGG | 0.24 |
| TTGAACACGTGGGGAT | -0.02 |
| AGAGTCACGTGGCGTT | 0.02 |
| GCGTGCACGTGATTTG | 0.11 |
| GTGTACACGTGTTCTG | -0.01 |
| TTACGCACGTGTTAGG | -0.21 |
| TAGGGCACGTGTATAG | -0.14 |
| TGGTTCACGTGGCGTC | 0.28 |
| AAAAGCACGTGGATTG | -0.02 |
| CTGAACACGTGAGTGG | 0.14 |
| TATGTCACGTGCTCGG | 0.02 |
| ATTGTCACGTGAGATG | 0.22 |
| AAGGGCACGTGTGGTA | -0.17 |
| AGTCACACGTGCGTGG | 0.05 |
| AATTTCACGTGTCGGG | 0.21 |
| ATCTTCACGTGGTCGT | 0.18 |
| TTTGGCACGTGGTGTC | -0.19 |
| TGGTACACGTGGTGAT | -0.07 |
| GTGGACACGTGGATAA | 0.09 |
| GGGTACACGTGAGTCG | 0.33 |
| CTACGCACGTGTGGTG | 0.01 |
| TTTCTCACGTGTGATT | 0.16 |

| Sequence | relative binding free energy [kcal/mol] |
| --- | --- |
| ATAGGCACGTGAAGTA | -0.01 |
| AGTCGCACGTGACGGG | 0.04 |
| TAGGTCACGTGAATTG | 0.36 |
| AGGTCCACGTGTAGTT | 0.04 |
| TTCTTCACGTGTATAG | 0.15 |
| AAAATCACGTGTGGGT | 0.27 |
| AATATCACGTGTTGAG | 0.14 |
| CGCGGCACGTGTGCGG | 0.01 |
| GTGTACACGTGTTAAT | 0.02 |
| ATCGTCACGTGGGCTG | 0.04 |
| GTGTACACGTGGACGT | 0.1 |
| GGGGGCACGTGGGATA | -0.16 |
| TGTCACACGTGTGTTC | 0.35 |
| TTTGGCACGTGTGTAC | -0.08 |
| TAAGACACGTGGCTGT | -0.04 |
| TCGTTCACGTGGCTAG | 0.26 |
| TGCTACACGTGAGTTT | 0.37 |
| GTAATCACGTGGTCTG | 0 |
| GTTGACACGTGGCATG | -0.14 |
| TGATTCACGTGTTTGC | 0.23 |
| ATGAACACGTGATTTG | 0.18 |
| CTCGGCACGTGGGTGG | -0.19 |
| TGGTTCACGTGGGGTC | 0.21 |

| Sequence | relative binding free energy [kcal/mol] |
| --- | --- |
| ACTGGCACGTGAGTGG | 0.08 |
| CGTATCACGTGGAGGG | 0.1 |
| TTCCGCACGTGTTATA | 0.19 |
| TTTGTCACGTGGGATT | -0.01 |
| TGTGGCACGTGACGGT | -0.05 |
| GTGAGCACGTGCGTTA | -0.11 |
| ATTTCCACGTGGGGAG | -0.12 |
| AAGGACACGTGTGTTT | 0.07 |
| CGTGTCACGTGGGAGT | -0.09 |
| GGAAGCACGTGTGTAT | -0.09 |
| TGACTCACGTGTATGT | 0.05 |
| TAGTGCACGTGGTAGG | -0.16 |
| TTGTTCACGTGGAACA | 0.27 |
| AGTAACACGTGGGGAC | 0.02 |
| TTAGGCACGTGTTTTA | 0.02 |
| TGATGCACGTGGGTGG | -0.15 |
| GGGGCCACGTGAGGTC | 0.27 |
| TTGCGCACGTGAGATA | 0.18 |
| CGTCTCACGTGGGGGT | 0.07 |
| GCATGCACGTGAAGTG | 0.34 |
| TGTTTCACGTGGGAAG | 0.32 |
| GTGTTCACGTGTAGGT | 0.13 |
| TTTTTCACGTGATACA | 0.27 |

| Sequence | relative binding free energy [kcal/mol] |
| --- | --- |
| GGGTGCACGTGAAGCT | 0.33 |
| GCTTCCACGTGGTTTG | 0.18 |
| AGGCGCACGTGGATAG | 0.04 |
| TAGTACACGTGGAGCG | 0.25 |
| AGGGTCACGTGCCGGT | 0.02 |
| GTTTGCACGTGTTTGA | 0.12 |
| GCGGGCACGTGGATCG | 0.04 |
| TTATGCACGTGACTAG | 0.04 |
| TGGATCACGTGGTACA | 0.13 |
| TGTCGCACGTGTAGGT | -0.06 |
| TAAGTCACGTGGGTAT | 0.06 |
| ATACGCACGTGGTGTT | -0.28 |
| AGGTACACGTGGGTCT | -0.12 |
| ACCGGCACGTGGGGTG | -0.3 |
| GTTATCACGTGCGTGC | 0.13 |
| GCATACACGTGGGTAG | -0.05 |
| TACTGCACGTGTTAGG | 0.05 |
| TGGAGCACGTGAGAGT | 0.29 |
| GGCGGCACGTGTGCTG | -0.01 |
| GTCATCACGTGGTTTA | 0.26 |
| ATGCACACGTGTTTAT | 0.1 |
| GATGGCACGTGTTTAT | 0.01 |
| GTTTACACGTGTTTTG | 0.19 |

| Sequence | relative binding free energy [kcal/mol] |
| --- | --- |
| GTAGGCACGTGGGTGC | -0.16 |
| ATTGGCACGTGTAGGA | 0.06 |
| GGGGCCACGTGGCGGC | -0.19 |
| TTTAACACGTGAATAG | 0.31 |
| TAGATCACGTGATTTG | 0.23 |
| TCATACACGTGTAGGG | 0.09 |
| GTATTCACGTGAAGTG | 0.3 |
| GGCGGCACGTGATATG | 0.12 |
| AATTGCACGTGGGAAT | 0 |
| TGATGCACGTGCTCGT | 0 |
| CGTTGCACGTGTATTA | -0.01 |
| TGGGCCACGTGGTTAT | -0.09 |
| CAGTACACGTGGGGTA | -0.18 |
| AGGGGCACGTGAGTGC | 0.13 |
| AGTTGCACGTGCAAAT | 0.2 |
| ATGATCACGTGAGTTG | 0.3 |
| AGTGACACGTGAGATA | 0.16 |
| AAGGCCACGTGTTAGT | -0.04 |
| ACGGGCACGTGCGGGG | -0.22 |
| TGTAACACGTGTAGGA | 0.16 |
| AGTCGCACGTGTTTGG | -0.05 |
| TCGGACACGTGTTAGG | 0.07 |
| ATTAGCACGTGCTGGG | -0.13 |
